The source gives no read counts; variants with many changes may rest on few reads.
B1: LINE1-full (parent)
chain: UACGUAGGUGGUUUUCCCCUGAUAGUGCUAAGGGGGCCUGGAAGUUUGGACUGGGCAGAGCUCAACACAGCGUGGCAAAGUGGCUGUGGCUAGACUGCCUCUCUGGAUUCCUCGUCACUCAGCAGGGCAUCUCUGAGAGAAAUGCC

Variants of: B1
Assay: self-cleavage, relative activity (ratio to wild type); higher = more cleavage; in vitro, sequencing; the parent is a self-cleaving ribozyme

Row | Variant | self-cleavage
1 | UACGUAGGUGGUUUUCCCCUGAUAGUGCUAAGGGGGCUUGGAAGUUUGGACUGGGCAGAGCUCAACACAGCGCGGCAAAGUGGCUGUGGCUAGACUGCCUCUCUGGAUUCCCCGUCACUCAGCAGGGCAUCUCUGGGAGAAAUGCC [C38U U73C U112C A136G] | 0.78
2 | UACGUAGGUGGUUUUCCCCUGAUAGUGCUAAGGGGGCUUGGAAGUUUGGACUGGGCAGAGCUCAUCACAGCGUGGCAAAGUGGCUGUGGCUAGACCGCCUCUCUGGGUUCCUCGUCACUCAGCAGGGCAUCUCUGAGAGAAAUGCC [C38U A65U U96C A107G] | 0
3 | UACGUAGGUGGUUUUCCCCUGAUAGUGCUAAGGGGGCCAGGGAGUUUGGACUGGGCAGAGCUCAACACAGCGUGGCAAAGUGGCUGUGGCUAGACCGCCUCUCUGGAUUCUUCGUCACUCAGCAGGGCAUCUCUGAGAGAAAUGCC [U39A A42G U96C C111U] | 0.07
4 | UACGUAGGUGGUUUUCCCCUGAUAGUGCUAAGGGGGCAUGGAAGUUUGGACUGGGCAGAGCUCAACACAGCGCGGCAAAGUGGCUGUGGCUAGACUGCCUCUCUGGAUUCCUCGUCACUCAGCAGGGCAUCCCUGAGAGAAAUGCC [C38A U73C U132C] | 1.95
5 | UACGUAGGUGGUUUUCCCCUGAUAGUGCUAAGGGGGCUUGGAAGUUUGGACUGGGCAUAGCUCAACACAGCGUGGCAAAGUGGCUGUGACUAGACUGCCUCUCCGGAUUCCUCGUCACUCAGCAGGGCAUCUCUGAGAGAAAUGCC [C38U G58U G89A U104C] | 0.01
6 | UACGUAGGUGGUUUUCCCCUGAUAGUGCUAAGGGGGCCAGGGAGUUAGGACUGGGCAGAGCUCAACACAGCGUGGCAAAGUGGCUGUGGCUAGACUGCCUCUCUGGAUUCCUCGUCACUCAGCAGGGCAUCUCUGAGAGAAAUGCC [U39A A42G U47A] | 0.54
7 | UACGUAGGUGGUUUUCCCCUGAUAGUGCUAAGGGGGCUUGGAAGUUAGGACUGGGCAGAGCUCAACACAGCGUGGCAGAGUGGCUGUGGCUAGACUGCCUCUCUGGAUUCCUCGUCACUCAGCAGGGCAUCUCUGAGAGAAAUGCC [C38U U47A A78G] | 1.07
8 | UACGUAGGUGGUUUUCCCCUGAUAGUGCUAAGGGGGCUUGGAAGUUUGGACCGGGCAGGGCUCAACACAGCGUGGCUAAGCGGCUGUGGCUAGACUGCCUCUCUGGAUUCCUCGUCACUCUGCAGGGCAUCUCUGAGAGAAAUGCC [C38U U52C A59G A77U U81C A121U] | 0.13
9 | UACGUAGGUGGUUUUCCCCUGAUAGUGCUAAGGGGGCAUGGAAGUUUGGACUGGGCAGAGCUCAGCACAGAGUGGCAAAGUGGCUGUGGCUAGACUGCCUCUCUGGAUUCCUCGUCACUCAGCAGGGCAUCUCUGAGAGAAAUGCC [C38A A65G C71A] | 0.04
10 | UACGUAGGUGGUUUUCCCCUGAUAGUGCUAAGGGGGCUUGGAAGUUUGGACUGGGCAGAGCUCAACACUGCGUGGCAAAGUGGCUGUGGCUAGACUGCCUCUCCGGAUUCCUCGUCACUCAGCAGGGCAUCUCUGAGAGAAAUGCC [C38U A69U U104C] | 0.02
11 | UACGUAGGUGGUUUUCCCCUGAUAGUGCUAAGGGGGCUUGGAAGUUUGGACUGGGCAGAGCUCAACACAGCGUGGCAAAGUGGCUGUGGCUAGACUGCCUCUCUGGAUUCCUCGUCACUCAGCAGGGCAUCUCUGAGGGAAAUGCA [C38U A138G C146A] | 1.4
12 | UACGUAGGUGGUUUUCCCCUGAUAGUGCUAAGGGGGCAUGGAAGUUUGGACUGGGCAGGGCACAACACAGCGUGGCAAAGUGGCUGUGGCUAGACUGCCUCUCUGGAUUCCUCGUCACUCAGCAGGGCAUCUCUGAGAGAAAUGCC [C38A A59G U62A] | 0.05
13 | UACGUAGGUGGUUUUCCCCUGAUAGUGCUAAGGGGGCUUGGAAGCUUGGACAGGGCAGAGCUCAACACAGCGUGGCAAAGUGGCUGUGGCUAGACUGCCUCUCUGGAUUCCUCGUCACUCAGCAGGGCAUCUCUGAGAGAAAUGCC [C38U U45C U52A] | 1.01
14 | UACGUAGGUGGUUUUCCCCUGAUAGUGCUAAGGGGGCCAGGAGGUUCGGACUGGGCAGAGUUCAACACAGCGUGGCAAAGUGGCUGUGGCUAGACUGCCUCUCUGGAUUCCUCGUCACUCAGCAGGGCAUCUCUGAGAGAAAUGCC [U39A A43G U47C C61U] | 0.04
15 | UACGUAGGUGGUUUUCCCCUGAUAGUGCUAAGGGGGCUUGGAAGGUUGGACUGGGCAGAGCUCAACACAGCGUGGCAAAGCGGCUGUGGCUAGACUGCCUCUCUGGAUUCCUCGUCACUCAGCAGGGCAUCUCUGAGAGAAAUACC [C38U U45G U81C G144A] | 0.91
16 | UACGUAGGUGGUUUUCCCCUGAUAGUGCUAAGGGGGCUCGGAAGUUUGGACUGGGCAGAGCUCCACACAGCGUGGCAAAGUGGCUGUGGCUAGACUGCCUCUCUGGAUUCCUCGUCACUCAGCAGGGCACCUCUGAGAGAAAUGCC [C38U U39C A64C U130C] | 0.26
17 | UACGUAGGUGGUUUUCCCCUGAUAGUGCUAAGGGGGCCAGGAGGUUUGGACUGGGCAGAGCUCAACACAGCGUGGCAAAGUGGCUGAGGCUAGACUGCCUCUCUGGAUUCCUCGUCACUCAGCAGGGCAUCUCUGAGAGAAAUGCC [U39A A43G U87A] | 0.1
18 | UACGUAGGUGGUUUUCCCCUGAUAGUGCUAAGGGGGCUUGGUAGUUUGGACUGGGCAGAGCUCAACGCAGCGUGGCAAAGAGGCUGUGGCUAGACUGCCUCUCUGGAUUCCUCGUCACUCAGCAGGGCAUCUCUGAGAGAAGUGCC [C38U A42U A67G U81A A142G] | 0.49
19 | UACGUAGGUGGUUUUCCCCUGAUAGUGCUAAGGGGGCAUGGAAGUUUGGACUGGGCAGAGCUCAACACAGCGUGGCAAAUUGGCUGAGGCUAGACUGCCUCUUUGGAUUCCUCGUCACUCAGCAGGGCAUCUCUGAGAGAAAUGCC [C38A G80U U87A C103U] | 0.04
20 | UACGUAGGUGGUUUUCCCCUGAUAGUGCUAAGGGGGCUUGGAAGUUUGGACUGGGCAGAGCUCAACACAGCGUGGCAAAGUGGCUGUGGCUAGACUGCCUCUCUGGAUUCCUCGCCACUCAGCAGGGUAUCUCUGAGAGAAAUGCC [C38U U115C C128U] | 1.67

Row | Variant | self-cleavage
21 | UACGUAGGUGGUUUUCCCCUGAUAGUGCUAAGGGGGCAUGGAAGUUUGGACCGGGCAGAGCUCAGCACAGCGUGGCAAGGUGGCUGUGGCUAGACUGCCUCUCUGGAUUCCUCGUCACUCAGCAGGGCAUCUCUGAGAGAAAUGCC [C38A U52C A65G A79G] | 0.31
22 | UACGUAGGUGGUUUUCCCCUGAUAGUGCUAAGGGGGCUUGGAAGUUUGGACUGGGCAGAGCUCAACACAGCGUGGCAAAGUGGCUGUGGCUAGACUGCCUCUCUGGAUUCCUCGUCACACAGCAGGGCAUCUCUGGGAGAAAUGCC [C38U U119A A136G] | 1.68
23 | UACGUAGGUGGUUUUCCCCUGAUAGUGCUAAGGGGGCCAGGGAGUUUGGACUGGGCAGAGCUCAACACAGCGUGGCAAAGUGGCUGUGGCUAGACUGCCUCUCUGGAUUCCUCGUCACUCAGCAGGGCAUCUCUGAGAGAAACGCC [U39A A42G U143C] | 1.55
24 | UACGUAGGUGGUUUUCCCCUGAUAGUGCUAAGGGGGCUUGGAAGUUUGGACUGGGCAGAGCUCAACACAGCGUGGCAGAGUGGCUGUGGCUAGACUGCCUCUCAGGACUCCUCGUCACUCAGCAGGGCAUCUCUGAGAGAAAUGCC [C38U A78G U104A U108C] | 2.09
25 | UACGUAGGUGGUUUUCCCCUGAUAGUGCUAAGGGGGCUUGGGAGUUUGGACUGGGCAGAGCUCAACACAGCGUGGCAAAGUGGCUGUGGCUAGACUGCUUCUCUGGAUUCCUCGUCACUCAGCAGGGCAUCUCUGAGAGAAAUGCC [C38U A42G C99U] | 1.74
26 | UACGUAGGUGGUUUUCCCCUGAUAGUGCUAAGGGGGCUUGGAAGUUCGGACUGGGCAGAGCUCAACACAGCGAGGCAAGGUGGCUGUGGCUAGACUGCCUCUCUGGAUUCCUCGUCACUCAGCAGGGCAUCUCUGAGAGAAAUGCC [C38U U47C U73A A79G] | 1.43
27 | UACGUAGGUGGUUUUCCCCUGAUAGUGCUAAGGGGGCUUGGAAGUUUGGACUGGGCAGAGCUCAACGCAGCGAGGCAAAGUGGCUGUGGCUAGACUGCCUCUCCGGAUUCCUCGUCACUCAGCAGGGCAUCUCUGUGAGAAAUGCC [C38U A67G U73A U104C A136U] | 0.65
28 | UACGUAGGUGGUUUUCCCCUGAUAGUGCUAAGGGGGCUUGGAAGUUUGGACUGGGCAGAGCUCAACACUGCGUAGCAGAGUGGCUGUGGCUAGACUGCCUCUCUGGAUUCCUCGUCACUCAGCAGGGCAUCUCUGAGAGAAAUGCC [C38U A69U G74A A78G] | 0.03
29 | UACGUAGGUGGUUUUCCCCUGAUAGUGCUAAGGGGGCCAGGGAGUUUGGACUGGGCAGAGCUCAACACAGCGUGGCAAAGUGGCUAUGGCUAGACUGCCUCUCUGGAUUCCUCGUCACUCAGCAGGGCAUCUCUGAGAGAAAUGCC [U39A A42G G86A] | 0.05
30 | UACGUAGGUGGUUUUCCCCUGAUAGUGCUAAGGGGGCUUGGGAGUUUGGACUGGGCAGAGCUCAACACAGCGUGGCAAAGUGGCUGUGGCUAGACUGCCUCCCUGGAAUCCUCGUCACUCAGCGGGGCAUCUCUGAGAGAAAUGCC [C38U A42G U102C U108A A124G] | 1.48
31 | UACGUAGGUGGUUUUCCCCUGAUAGUGCUAAGGGGGCUUGGAAGUUUGGACUGGGCAGAGCUCAACACAGCGUGUCAAAGUGGCUGUGGCUAGCCUGCCUCUCUGGAUUCCUCGUCACUCAGCAGGGCAUCUCUGAGAGAAGUGCC [C38U G75U A94C A142G] | 0.03
32 | UACGUAGGUGGUUUUCCCCUGAUAGUGCUAAGGGGGCUUGGAAGUCUGGACUGGGCAGAGCUCAACGCAGCGUGGCAAAGUGGCUGCGGCUAGACUGCCUCUCUGGAUUCCUCGUCACUCAGCAGGGCAUCUCUGAGAGAAAUGCC [C38U U46C A67G U87C] | 1.72
33 | UACGUAGGUGGUUUUCCCCUGAUAGUGCUAAGGGGGCUUGGAGGUUUGGACUGGGCAGAGCUCAACACAGCGUGGCAAAGUGGCUGUGGCUAGACCGCCUCUCUGGAUUCCUCGUCACUCAGCAGGGCAUCUCUGAGAGAAAUGCC [C38U A43G U96C] | 0.21
34 | UACGUAGGUGGUUUUCCCCUGAUAGUGCUAAGGGGGCAUGGAAGUUUGGACUGGGCAGAGCUCAACACAGCGUGGCAAAGUGGCUGUGGCUAGACUGCCUCUCUGGAUUCCUCGUCUCUCGGCAGGGCAUCUCUGAGAGAAAUGCC [C38A A117U A121G] | 1.43
35 | UACGUAGGUGGUUUUCCCCUGAUAGUGCUAAGGGGGCAUGGAAGUUUGGACUGGGCAGAGCUCAACACAGCGUGGCAAAGUGGCUGUGGCUGGACUGCCUCUCUGGAUUCCUCGUCACUCUGCAGGGCAUCUCUGAGAGAAAUGCC [C38A A92G A121U] | 0.09
36 | UACGUAGGUGGUUUUCCCCUGAUAGUGCUAAGGGGGCUUGGAAGUUUGGACUGGGCAGAGCUCAACACAGCGUGGCAAAGUGGCUGUGGCAAGACUGCCUCUCCGGAUUCCUCGUCACUCAGCAGGGCAUCUCUGAGAGAAAUGCC [C38U U91A U104C] | 1.1
37 | UACGUAGGUGGUUUUCCCCUGAUAGUGCUAAGGGGGCUUGGAAGUUUGGACUGGGCAGAGCUCAACACAGCGUGGCAAAGUAGCUGUGGCUAGACUGCUUCUCUGGAUUCCUCGUCACUCAGCAGGGCAUCUCUGAGAGAAGUGCC [C38U G82A C99U A142G] | 1.2
38 | UACGUAGGUGGUUUUCCCCUGAUAGUGCUAAGGGGGCUUGGAAGUUUGGACUGGGCAGAGCUCAACACAGCGUGGCAAAAUGGCUGUGGCUAGACUGCCUCUCUGGAUUCCUCGUCACUCAGCAGGGCAUCUCUGAGAGUAAUGCC [C38U G80A A140U] | 1.97
39 | UACGUAGGUGGUUUUCCCCUGAUAGUGCUAAGGGGGCUUGGAAGUUUGGACUGGGCAGAGCCCAACACAGCGUGGCAAGGUGGCUGUGGCUAGACUGCCUCUCUGGAUACCUCGUCACUCAGCAGGGCAUCUCUGAGAGAAAUGCC [C38U U62C A79G U109A] | 0

From the RNAGym collection of RNA variant scans (doi:10.7554/elife.90254)
